# The list shows a part of the results.
# B1: Gal 9 (Homo sapiens), O00182 (protein)
# chain: MAFSGSQAPYLSPAVPFSGTIQGGLQDGLQITVNGTVLSSSGTRFAVNFQTGFSGNDIAFHFNPRFEDGGYVVCNTRQNGSWGPEERKTHMPFQKGMPFDLCFLVQSSDFKVMVNGILFVQYFHRVPFHRVDTISVNGSVQLSYISFQNPRTVPVQPAFSTVPFSQPVCFPPRPRGRRQKPPGVWPANPAPITQTVIHTVQSAPGQMFSTPAIPPMMYPHPAYPMPFITTILGGLYPSKSILLSGTVLPSAQRFHINLCSGNHIAFHLNPRFDENAVVRNTQIDNSWGSEERSLPRKMPFVRGQSFSVWILCEAHCLKVAVDGQHLFEYYHRLRNLPTINRLEVGGDIQLTHVQT
# Tests used:
# Test in all cases: glycan array binding signal (z-score within array); higher = stronger binding
# Details in all cases: glycan notation: IUPAC condensed, linker removed
# [1] = molecular target: Neu5Ac(a2-6)GalNAc(b1-4)GlcNAc
# In short: (§1)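 Negative Z-scores can be read as non-binding. The Z-score is calculated within each array and then averaged across arrays of one protein sequence at different concentrations or buffers and across linkers. Arrays, 3228 in all, were curated from the Consortium for Functional Glycomics database and kept only where the protein sequence was available.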
# [2] = molecular target: Neu5Ac(a2-6)GalNAc(b1-4)GlcNAc6S
# In short: as §1
# [3] = molecular target: Neu5Ac(a2-6)GlcNAc(b1-4)GlcNAc
# In short: as §1
# [4] = molecular target: Neu5Ac(a2-6)GlcNAc(b1-4)GlcNAc(b1-4)GlcNAc
# In short: as §1
# [5] = molecular target: Neu5Ac(a2-8)Neu5Ac
# In short: as §1
# [6] = molecular target: Neu5Ac(a2-8)Neu5Ac(a2-3)Gal(b1-3)GalNAc(b1-4)[Neu5Ac(a2-3)]Gal(b1-4)Glc
# In short: as §1
# [7] = molecular target: Neu5Ac(a2-8)Neu5Ac(a2-3)Gal(b1-3)GalNAc(b1-4)[Neu5Ac(a2-8)Neu5Ac(a2-3)]Gal(b1-4)Glc
# In short: as §1
# [8] = molecular target: Neu5Ac(a2-8)Neu5Ac(a2-3)Gal(b1-4)Glc
# In short: as §1
# [9] = molecular target: Neu5Ac(a2-8)Neu5Ac(a2-3)Gal(b1-4)GlcNAc
# In short: as §1
# [10] = molecular target: Neu5Ac(a2-8)Neu5Ac(a2-3)[Gal(b1-3)GalNAc(b1-4)]Gal(b1-4)Glc
# In short: as §1
# [11] = molecular target: Neu5Ac(a2-8)Neu5Ac(a2-3)[GalNAc(b1-4)]Gal(b1-4)Glc
# In short: as §1
# [12] = molecular target: Neu5Ac(a2-8)Neu5Ac(a2-8)Neu5Ac
# In short: as §1
# [13] = molecular target: Neu5Ac(a2-8)Neu5Ac(a2-8)Neu5Ac(a2-3)Gal(b1-4)Glc
# In short: as §1
# [14] = molecular target: Neu5Ac(a2-8)Neu5Ac(a2-8)Neu5Ac(a2-3)[Gal(b1-3)GalNAc(b1-4)]Gal(b1-4)Glc
# In short: as §1
# [15] = molecular target: Neu5Ac(a2-8)Neu5Ac(a2-8)Neu5Ac(a2-3)[GalNAc(b1-4)]Gal(b1-4)Glc
# In short: as §1
# [16] = molecular target: Neu5Ac(a2-8)Neu5Ac(a2-8)Neu5Ac(a2-8)Neu5Ac(a2-3)[GalNAc(b1-4)]Gal(b1-4)Glc
# In short: as §1
# [17] = molecular target: Neu5Ac(a2-8)Neu5Gc(a2-3)Gal(b1-4)GlcNAc
# In short: as §1
# [18] = molecular target: Neu5Ac(b2-6)Gal(b1-4)GlcNAc
# In short: as §1
# [19] = molecular target: Neu5Ac(b2-6)GalNAc
# In short: as §1
# [20] = molecular target: Neu5Ac9Ac(a2-3)Gal(b1-3)GlcNAc
# In short: as §1
# [21] = molecular target: Neu5Ac9Ac(a2-3)Gal(b1-4)GlcNAc
# In short: as §1
# [22] = molecular target: Neu5Ac9Ac(a2-6)Gal(b1-4)GlcNAc
# In short: as §1
# [23] = molecular target: Neu5Gc(a2-3)Gal(b1-3)GlcNAc
# In short: as §1
# [24] = molecular target: Neu5Gc(a2-3)Gal(b1-3)[Fuc(a1-4)]GlcNAc
# In short: as §1
# [25] = molecular target: Neu5Gc(a2-3)Gal(b1-4)Glc
# In short: as §1
# [26] = molecular target: Neu5Gc(a2-3)Gal(b1-4)GlcNAc
# In short: as §1
# [27] = molecular target: Neu5Gc(a2-3)Gal(b1-4)GlcNAc(b1-3)Gal(b1-4)GlcNAc(b1-2)Man(a1-3)[Neu5Gc(a2-3)Gal(b1-4)GlcNAc(b1-3)Gal(b1-4)GlcNAc(b1-2)Man(a1-6)]Man(b1-4)GlcNAc(b1-4)GlcNAc
# In short: as §1
# [28] = molecular target: Neu5Gc(a2-3)Gal(b1-4)[Fuc(a1-3)]GlcNAc
# In short: as §1
# [29] = molecular target: Neu5Gc(a2-6)Gal(b1-4)GlcNAc
# In short: as §1
# [30] = molecular target: Neu5Gc(a2-6)GalNAc
# In short: as §1
# [31] = molecular target: Neu5Gc(a2-8)Neu5Ac(a2-3)Gal(b1-4)GlcNAc
# In short: as §1
# [32] = molecular target: Neu5Gc(a2-8)Neu5Gc(a2-3)Gal(b1-4)GlcNAc
# In short: as §1
# [33] = molecular target: Neu5Gc(a2-8)Neu5Gc(a2-3)Gal(b1-4)GlcNAc(b1-3)Gal(b1-4)GlcNAc
# In short: as §1
# [34] = molecular target: Neu5Gc(a2-8)Neu5Gc(a2-6)Gal(b1-4)GlcNAc
# In short: as §1
# [35] = molecular target: Neu5Gc(b2-6)Gal(b1-4)GlcNAc
# In short: as §1
binder,measurement,setting,value
B1,glycan array binding signal (z-score),[1],-0.326
same,glycan array binding signal (z-score),[2],-0.291
same,glycan array binding signal (z-score),[3],-0.332
same,glycan array binding signal (z-score),[4],-0.318
same,glycan array binding signal (z-score),[5],-0.316
same,glycan array binding signal (z-score),[6],-0.287
same,glycan array binding signal (z-score),[7],-0.263
same,glycan array binding signal (z-score),[8],-0.306
same,glycan array binding signal (z-score),[9],-0.19
same,glycan array binding signal (z-score),[10],-0.316
same,glycan array binding signal (z-score),[11],-0.333
same,glycan array binding signal (z-score),[12],-0.323
same,glycan array binding signal (z-score),[13],-0.325
same,glycan array binding signal (z-score),[14],-0.303
same,glycan array binding signal (z-score),[15],-0.309
same,glycan array binding signal (z-score),[16],-0.31
same,glycan array binding signal (z-score),[17],-0.265
same,glycan array binding signal (z-score),[18],-0.346
same,glycan array binding signal (z-score),[19],-0.328
same,glycan array binding signal (z-score),[20],-0.319
same,glycan array binding signal (z-score),[21],-0.197
same,glycan array binding signal (z-score),[22],-0.325
same,glycan array binding signal (z-score),[23],-0.244
same,glycan array binding signal (z-score),[24],-0.321
same,glycan array binding signal (z-score),[25],-0.303
same,glycan array binding signal (z-score),[26],-0.206
same,glycan array binding signal (z-score),[27],-0.271
same,glycan array binding signal (z-score),[28],-0.312
same,glycan array binding signal (z-score),[29],-0.325
same,glycan array binding signal (z-score),[30],-0.318
same,glycan array binding signal (z-score),[31],-0.292
same,glycan array binding signal (z-score),[32],-0.298
same,glycan array binding signal (z-score),[33],-0.282
same,glycan array binding signal (z-score),[34],-0.269
same,glycan array binding signal (z-score),[35],-0.305

# From the supplement of paper PMC8728848
